Data published in the RNAGym collection of RNA variant scans (doi:10.7554/elife.90254).
Read counts are not given, so values of variants with three or more changes are uncertain.

B1: LINE1-mini (parent)
chain: GGCAGAGCUCAACACAGCGUGGCAAAGUGGCUGUGGCUAGACUGCC

Variants of: B1
Experiment: self-cleavage, relative activity (ratio to wild type); higher = more cleavage; in vitro, sequencing; the parent is a self-cleaving ribozyme

Row | Variant | self-cleavage
1 | GGCAGAACUCAACACAGCGUGGCAAAUUGUCUGUGGCUAGACUGCU [G7A G27U G30U C46U] | 0.05
2 | GGCAGACCUCAACGCAACGUGGCAAAGUGUCUCUGGAUAGACUGCC [G7C A14G G17A G30U G33C C37A] | 0.02
3 | GGCAGACAUCAACACAGCGUGGCAAAGUUGCUGUGGCUAGACUGCC [G7C C8A G29U] | 0.34
4 | GGCAGACCUCUACACAGCGUGGCAAAGUGGCUGUAGCUAGACUGCC [G7C A11U G35A] | 0.02
5 | GGCAGAACUCAACACAGUGUGGCAAAGUGGCUGUGGCUAGACUGCA [G7A C18U C46A] | 0.46
6 | GGCAGACCUCUACAUAUCGUGGCAAAGGGGCUGUUGCUAGACUGCC [G7C A11U C15U G17U U28G G35U] | 0.01
7 | GGCAGAACUCAACACAGCGUGGCAAAGUGUGUGUGGCUAGACUGCC [G7A G30U C31G] | 0.03
8 | GGCAGAACUCAACAUAGCGUGGCAAAGUUGCUGUGGCUAGACUGCC [G7A C15U G29U] | 0.1
9 | GGCAGAACCCAACACACCGUGGCAAAGGGGCUGCGGCUAGACUGCC [G7A U9C G17C U28G U34C] | 0.01
10 | GGCAGACAUCAACACAGCGUGGCAAGGUGGCUGUGGCUAGACUGCC [G7C C8A A26G] | 0.56
11 | GGCAGACCUCAACCCAGCUGGGCAAAGUGGCUGUGGGUAGACCGCC [G7C A14C G19U U20G C37G U43C] | 0.07
12 | GGCAGAACUCAACACAGCGUGGCAAAGCGGCUGUAGCUAGACUGCC [G7A U28C G35A] | 0.44
13 | GGCAGACCUCAACACAGCGUGGCAAAGUGGCUGUGGCUUAACUGCG [G7C A39U G40A C46G] | 0.04
14 | GGCAGACCUCAACACCGCGUGGCAAAGAGGCUAUGGCUAGACUGCC [G7C A16C U28A G33A] | 0.07
15 | GGCAGACAUCAACACAGCUUGGCAAAGUGGCUGUGGCUAGACUCCC [G7C C8A G19U G44C] | 0.12
16 | GGCAGAACUCAACACAGCGUGACAAAGUGGCUGUGGCUAGACUGGC [G7A G22A C45G] | 0.08
17 | GGCAGACCUCAACACAGCGUGGCAGAGUGGCAUUGGCUAGACUGCC [G7C A25G U32A G33U] | 0.03
18 | GGCAGACAUCAACAUCGCGUGGCAAAGUGGCUGUGUCUAGACUGCC [G7C C8A C15U A16C G36U] | 0.03
19 | GGCAGAACCCAACACAUCGUGGCACAGUGGCUGUGGCUAGACUGCC [G7A U9C G17U A25C] | 0.09

Row | Variant | self-cleavage
20 | GGCAGAACUCAACACAGCGUGGCAAAGUGGCUGAGGCUAGACUCCC [G7A U34A G44C] | 0.05
21 | GGCAGAACCCAACAAAGCGUGGCAAAGUGGCGGUGGCUAGACUGCC [G7A U9C C15A U32G] | 0.02
22 | GGCAGACCUCAACACGGCUUGGCAAAGUGCAUGUGGCUAGACUGCC [G7C A16G G19U G30C C31A] | 0.01
23 | GGCAGAACUCAACACAGCGUGGUAAAGUGGCUGUGGCUAGACUGCA [G7A C23U C46A] | 0.26
24 | GGCAGACCUCAACACAGCGUGGCAGAGUUGCUGUGGCUAGACUGCC [G7C A25G G29U] | 0.1
25 | GGCAGACAUCAGCACAGCGUGGCAAAGUGGCUGUGGCUAGACUGCC [G7C C8A A12G] | 0.1
26 | GGCAGAACUCAACAUAGCGUGGCAAAGCGGCUGUGGCUAGACUGCC [G7A C15U U28C] | 0.41
27 | GGCAGACCUCAGCAAAGCGUUCCAAAGUGGCUCUGGCUAGACUGCC [G7C A12G C15A G21U G22C G33C] | 0.03
28 | GGCAGAACUCAACACAGCGUGGCAAAGUGGCCGGGGCUAGACUGCC [G7A U32C U34G] | 0.25
29 | GGCAGAACACAACACAGCGUGGCAAAGUGGCUGUGGCUCGACUGCC [G7A U9A A39C] | 0.17
30 | GGCAGAACUCAACACAGCGUGGAAAAGUGGCUGUGGCUAGGCUGCC [G7A C23A A41G] | 0.15
31 | GGCAGAACUCAACACAGCGUGGGAACGUUGCUGUGGCUAGACUGCC [G7A C23G A26C G29U] | 0.03
32 | GGCAGACCUCAACACUGCGUGUCAAAGUGGCUGUGGCUCGACUGCC [G7C A16U G22U A39C] | 0.09
33 | GGCAGAACUCAACACAGCGUGGCAAAGUGGCUAUAACUAGACUGCC [G7A G33A G35A G36A] | 0.03
34 | GGCAGAACGCAACACAGCGGGGCUAAAUGGCUGUGGCUAGACUGCG [G7A U9G U20G A24U G27A C46G] | 0.05
35 | GGCAGACCUCAACACGGCGUUGUGAAGUGGCUGUGGCUAGACUGCC [G7C A16G G21U C23U A24G] | 0.14
36 | GGCAGACCUCAACCCAGCGUGGCUAAGUGCUUGUGGCUAGACUGCC [G7C A14C A24U G30C C31U] | 0.03
37 | GGCAGAACUCAACAUAGCGAGGCAAAGUGGCUGUGGCUAGACGUCC [G7A C15U U20A U43G G44U] | 0.09
38 | GGCAGACCUCAACACAGCGUGGCAACGUGCCUGUGGCUAGACUGCC [G7C A26C G30C] | 0.28

Row | Variant | self-cleavage
39 | GGCAGAACUCAACACAGUGUAGCAAAGUGGCUGUGGCUAGACUGCU [G7A C18U G21A C46U] | 0.11
40 | GGCAGAACUCAACACAGCGUGGCAAAGUGACUGUGGCUAGACUCCG [G7A G30A G44C C46G] | 1.06
41 | GGCAGAACCCAACACAGCCUGGCAAAGUUGCUGUGGCUAGACUGAC [G7A U9C G19C G29U C45A] | 0.01
42 | GGCAGAACUCAACAUAGCGUGGCAAAGUGGCUGUGGUUAGACUGCC [G7A C15U C37U] | 0.1
43 | GGCAGAACUCAACACAGCGUGGCAAAGUGGCUGAGACUAUACUGCC [G7A U34A G36A G40U] | 0.03
44 | GGCAGACAUCAACACAGCGUGGCCUUGUGGCUGUGGCUAGACUCCC [G7C C8A A24C A25U A26U G44C] | 0.2
45 | GGCAGAACUCAACACAGCGUGGCAAAGUAGCUGCGGCUAGACUGCC [G7A G29A U34C] | 0.07
46 | GGCAGAACUCAACACACCGUGGCAAAGUGGCGAUGGCUAGACUGCC [G7A G17C U32G G33A] | 0.03
47 | GGCAGACCUCUACACAGCGUGGCAAAGUGGCUGUGGCUAGACUACC [G7C A11U G44A] | 0.01
48 | GGCAGAACUCAACACAGCGUUGCAAAGUGGCUAUGGCUAGACUGCC [G7A G21U G33A] | 0.09
49 | GGCAGAACUCAACACAGCGUGGCAAAGUGUAUGUGGUUAGACUGCC [G7A G30U C31A C37U] | 0.05
50 | GGCAGACCUCACCACAGCGUGUCAAAGUGGCGGUGGCUAGACUGCC [G7C A12C G22U U32G] | 0.07
51 | GGCAGACCUCAACUCAGCGUGACAAACUGGCUGUGGCUACACUGCC [G7C A14U G22A G27C G40C] | 0.03
52 | GGCAGAACUCAACACAGCGUGGCAAAGUGGCGGUGGCGAGACUGCC [G7A U32G U38G] | 0.02
53 | GGCAGACCUCAACUCAGCGUGGCAAAGUCGCUUUGGCUAGACUGCC [G7C A14U G29C G33U] | 0.03
54 | GGCAGAACUCAACACAGCGUUGCAAAGUGGAUGUGGCUAGACUGCC [G7A G21U C31A] | 0.03
55 | GGCAGAACUCAACAUAACGUGGCCAAGUUGCUGUGGCUAGACUGAC [G7A C15U G17A A24C G29U C45A] | 0.02
56 | GGCAGAACUCAACACAGCCCGGCAAAGUGGCCGUGGCUAGACUGCC [G7A G19C U20C U32C] | 0.04
